Reference: PubChem BioAssay AID1030 (National Center for Advancing Translational Sciences (NCATS), 2008)
Where “and” joins values, the source holds several entries; their conditions need not be identical. Equal entries are not always repeated. In all, about 220,000 compounds went through this assay and about 16,000 (7.3%) were called active. The shares of active, inactive and inconclusive entries below differ from those in the screen. Calls follow the shape of the dose curve; as a rule, active = well fitted inhibition curve with a large enough effect (not every such curve was filed as active); inconclusive = small, poorly fitted or top-dose-only effect, or another doubt; inactive = no such curve, though single readings can be large or run the other way. Potencies beside an inconclusive call are fits to weak or partial responses and may not hold up. Some compounds were tested as several samples or in several runs, with calls that do not always agree.

Each compound was assayed against Aldehyde dehydrogenase 1A1 (Homo sapiens) (UniProt P00352) (assay: qHTS Assay for Inhibitors of Aldehyde Dehydrogenase 1 (ALDH1A1)). Settings: Purified ALDH1A1, NADH fluorescence, propionaldehyde substrate; series mostly up to 75.3 µM; activity, negative = inhibition: at the top concentration.
UniProt P00352, sequence (P00352 whole entry, looked up): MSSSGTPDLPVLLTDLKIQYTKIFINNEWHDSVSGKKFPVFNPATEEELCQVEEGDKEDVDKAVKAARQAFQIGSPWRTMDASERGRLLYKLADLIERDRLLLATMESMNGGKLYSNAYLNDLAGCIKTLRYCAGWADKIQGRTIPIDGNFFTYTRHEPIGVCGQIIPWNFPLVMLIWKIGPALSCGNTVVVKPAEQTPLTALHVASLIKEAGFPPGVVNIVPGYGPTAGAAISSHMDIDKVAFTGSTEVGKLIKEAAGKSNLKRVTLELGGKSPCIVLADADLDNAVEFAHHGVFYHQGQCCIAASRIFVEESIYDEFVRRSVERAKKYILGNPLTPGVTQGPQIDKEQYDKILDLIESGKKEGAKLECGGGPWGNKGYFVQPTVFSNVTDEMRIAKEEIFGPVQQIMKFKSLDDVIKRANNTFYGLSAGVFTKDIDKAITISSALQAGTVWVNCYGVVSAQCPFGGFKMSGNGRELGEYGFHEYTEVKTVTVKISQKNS

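For activity, negative = inhibition in this document: plate controls were no enzyme wells and a reference inhibitor.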
Potency is read from the fitted curve at half-maximal effect; tags tell the direction and shape of the fitted curve.

Row | SMILES | Potency | activity, negative = inhibition
1 | COc1cccc(-c2nc(CS(=O)CC(=O)N3CCC4(CC3)OCCO4)c(C)o2)c1 (stereo not given) | active: 35.5 µM | 
2 | CC(CN)CC(=O)O (stereo not given) |  | inactive: -0.896%
3 | NC(=O)CNC(=O)[C@H](Cc1ccccc1)NC(=O)[C@H](CCCN=C(N)N)NC(=O)[C@@H](N)Cc1ccc(O)cc1 |  | inactive: 4.79%
4 | C/C(=N\Nc1ccccc1)c1c(O)n(-c2ccccc2)c(=O)[nH]c1=O | inconclusive: 25.1 µM [inhibitor, single point] | 
5 | C/C(=C\C(=O)c1ccc(Br)cc1)NCc1ccccc1 | inconclusive: 44.7 µM [inhibitor, single point] | 
6 | CCOCN(C(=O)CCl)c1c(C)cccc1CC | active: 31.6 µM | 
7 | CC(C)[C@@]1(NC(=O)[C@H]2CC3c4cccc5[nH]cc(c45)C[C@H]3N(C)C2)O[C@@]2(O)C3CCCN3C(=O)[C@@H](Cc3ccccc3)N2C1=O (stereo not given in full) | inactive | 
8 | Cc1cc(C=C2C(=O)N(C)C(=S)N(C)C2=O)c(C)n1C1CCCCC1 | inconclusive: 22.4 µM [inhibitor, partial curve] | 
9 | Clc1ccc(OCC#CCN2CCCCCC2)cc1 | inconclusive: 39.8 µM [inhibitor, single point] | 
10 | Fc1ccc(C(OCCN2CCN(CCCc3ccccc3)CC2)c2ccc(F)cc2)cc1 |  | inactive: -18.2%
11 | N[C@@H](CCl)C(=O)O | inconclusive: 12.6 µM [inhibitor, single point] | 
12 | O=C(NC1(C(F)(F)F)Oc2ccc(Cl)cc2O1)N1CCC2(CC1)OCCO2 (stereo not given) | inconclusive: 25.1 µM [inhibitor, single point] | 
13 | O=C(c1cccn2c(=O)c3ccc(Cl)cc3nc12)N1CCC2(CC1)OCCO2 | inconclusive: 22.4 µM [inhibitor, partial curve] | 
14 | CC(C(=O)c1ccc2ccccc2c1)N1CCCCC1 (stereo not given) | inconclusive: 35.5 µM [inhibitor, single point] | 
15 | C=C(C=O)CC1CC(O)[C@]2(C)OC3CC4OC5C[C@]6(C)O[C@]7(C)CCC8OC9C[C@]%10(C)OC%11C(C)=CC(=O)OC%11CC%10OC9C[C@@H](C)C8OC7CC6O[C@]5(C)CC5OC5C4OC3CC2O1 (stereo not given in full) | active: 4.47 µM | 
16 | O=C(c1ccc(F)cc1)N1CCC(N2CCCCCC2)CC1 | inconclusive: 39.8 µM [inhibitor, single point] | 
17 | Cc1ccc(OCC(=O)NCCN2CCN(C(=O)COc3ccc(C)cc3)CC2)cc1 | inconclusive: 22.4 µM [inhibitor, single point] | 
18 | O=C1NC(=O)C(=Cc2coc3ccccc3c2=O)C(=O)N1 | active: 3.55 µM | 
19 | CC[C@H](C)[C@H](NC(=O)[C@@H]1CCCN1C(=O)[C@H](CCC(=O)O)NC(=O)[C@@H](NC(=O)[C@H](Cc1ccccc1)NC(=O)[C@@H]1CCCN1C(=O)[C@@H](N)Cc1ccc(O)cc1)C(C)C)C(=O)O |  | inactive: -2.38%
20 | Clc1ccc(OCC#CCN2CCCC2)cc1 | inconclusive: 39.8 µM [inhibitor, single point] | 
21 | COC(=O)N(c1ccc(OC)cc1)P1(=S)OCCC(C)O1 (stereo not given) | active: 2.24 µM | 
22 | O=C(NC(=O)c1c(F)cccc1F)Nc1cc(Cl)c(OC(F)(F)C(F)C(F)(F)F)cc1Cl (stereo not given) |  | inactive: 4.84%
23 | CCOC(=O)c1cc2c(cn1)[nH]c1ccccc12 | inconclusive: 28.2 µM [inhibitor, single point] and inconclusive: 39.8 µM [inhibitor, single point] | 

Row | SMILES | Potency | activity, negative = inhibition
24 | COc1ccc(-c2cc(C(F)(F)F)n3nc(C(=O)N4CCC5(CC4)OCCO5)cc3n2)cc1OC | active: 10 µM | 
25 | CC1=NN(c2ccccc2)C(=O)[C@@H]1N=Nc1ccc([As](=O)(O)O)c(O)c1 | active: 3.55 µM | 
26 | Cc1ccc(-n2c(-c3ccc([N+](=O)[O-])cc3)nc3ccccc3c2=O)cc1 | active: 7.51 µM | 
27 | N#CC(C#N)=Cc1cccnc1 | active: 3.16 µM | 
28 | C=CCOCC1CO1 (stereo not given) | inconclusive: 39.8 µM [inhibitor, single point] | 
29 | CCCC(=O)NC(Oc1ccccc1Cl)C(Cl)(Cl)Cl (stereo not given) | inconclusive: 39.8 µM [inhibitor, single point] | 
30 | O=C(c1ccc(Cl)cc1)C1CCCN(Cc2cccc3cccnc23)C1 (stereo not given) | inconclusive: 35.5 µM [inhibitor, single point] | 
31 | C=C(C)c1cccc(C(C)(C)NC(=O)NC2CN3CCC2CC3)c1 (stereo not given) | inconclusive: 14.1 µM [inhibitor, partial curve] | 
32 | O=C(C1c2ccccc2C(=O)N2CCc3ccccc3C12)N1CCC2(CC1)OCCO2 (stereo not given) | inconclusive: 35.5 µM [inhibitor, single point] | 
33 | O=C(O)[C@@H](O)[C@@H](O)C1[O][Sb][O][C@@H]1CO (stereo not given in full) |  | inactive: -18.8% [at 13.5 µM]
34 | c1c[nH]cn1 | inconclusive: 35.5 µM [inhibitor, single point] | 
35 | CC(C)(C)n1c(O)c(C=Nc2ccc3c(c2)CCC3)c(=O)[nH]c1=O | inconclusive: 35.5 µM [inhibitor, single point] | 
36 | COc1ccccc1N1CCN(Cc2ccccc2F)CC1 | inconclusive: 39.8 µM [inhibitor, single point] | 
37 | O=C(Nc1ccccc1)C1CC(=O)N(C2CCCCC2)C1 (stereo not given) | inconclusive: 44.7 µM [inhibitor, single point] | 
38 | CN1C2CCC1C(COC(=O)c1ccccc1)C(O)C2 (stereo not given) |  | inactive: 9.45%
39 | C[C@@H]1NCCc2cc(O)c(O)cc21 |  | inactive: 10.9% [at 20.9 µM]
40 | O=c1c2ccccc2nc(N2CCCC2)n1-c1ccc(Cl)cc1 | inconclusive: 22.4 µM [inhibitor, partial curve, poor fit] | 
41 | CCOP(=S)(NN(Cc1ccccc1)C(=O)c1ccccc1)OCC |  | inactive: 0.498%
42 | NNS(=O)(=O)c1ccc(Sc2ccccn2)c([N+](=O)[O-])c1 | inconclusive: 28.2 µM [inhibitor, partial curve] | 
43 | CCc1ccc(C2=NN(CCC(=O)N3CCC4(CC3)OCCO4)C(=O)CC2)cc1 | inconclusive: 22.4 µM [inhibitor, single point] | 
44 | O=C(N/N=C/C1C(=O)NC(=S)N(c2ccccc2)C1=O)c1cc(Br)c(O)c(Br)c1 (stereo not given) | active: 12.6 µM | 
45 | COc1ccc(N2C(=O)NC(=O)/C(=C/c3ccc(N4CCOCC4)cc3)C2=O)cc1 | active: 10 µM | 
